Measured values: PubChem BioAssay AID1461 (National Center for Advancing Translational Sciences (NCATS), 2008)
The whole screen tested about 220,000 compounds, of which about 2,300 (1%) were called active. The inconclusive results got no clear call from the source; some entries with a clear call stand among them for comparison. Calls come from the whole dose curve; as a rule, active = well fitted inhibition curve with a large enough effect; inconclusive = small, poorly fitted or top-dose-only effect, or effect the other way; inactive = no such curve, though single readings can be large or run the other way. No potency is given beside an inconclusive call; the fits are too rough.

The compounds below were run against Neuropeptide S receptor (Homo sapiens) (UniProt Q6W5P4) (assay: qHTS Assay for Antagonists of the Neuropeptide S Receptor: cAMP Signal Transduction). Conditions: CHO-NPSR cells, cAMP TR-FRET, antagonist mode; activity change, negative = inhibition: at 38.3 µM (top of the series) unless noted.
UniProt Q6W5P4, sequence (Q6W5P4 whole entry, looked up): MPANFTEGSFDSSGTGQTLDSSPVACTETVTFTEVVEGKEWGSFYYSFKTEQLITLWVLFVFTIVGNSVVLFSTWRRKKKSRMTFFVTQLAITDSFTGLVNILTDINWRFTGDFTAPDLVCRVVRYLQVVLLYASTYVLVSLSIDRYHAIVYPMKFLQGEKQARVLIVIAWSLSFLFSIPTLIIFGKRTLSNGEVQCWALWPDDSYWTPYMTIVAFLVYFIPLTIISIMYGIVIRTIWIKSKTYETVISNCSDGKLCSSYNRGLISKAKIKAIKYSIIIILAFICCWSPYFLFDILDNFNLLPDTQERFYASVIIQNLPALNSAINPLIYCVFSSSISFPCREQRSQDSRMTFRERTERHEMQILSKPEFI
% is set by controls: 0 for no effect and ±100 for the full control effect; potency is the fitted concentration of half-maximal effect; tags give direction and shape of the fitted curve.
Note: nearly all actives have a fitted effect of over 50% in size.

Structure (SMILES)	Potency	activity change, negative = inhibition
OC(CNCC1CCCO1)Cn1c2ccc(Cl)cc2c2cc(Cl)ccc21 (centres undefined)	inconclusive [inhibitor, single point]	
O=[N+]([O-])c1ccccc1N/N=C1\CC2CC=CC12 (centres undefined)		inactive: -12.6%
Cc1cc(SCc2cc(=O)[nH]c3ccccc23)nc2ccccc12	inconclusive [inhibitor, single point]	
Cc1ccccc1Nc1nc(NCc2ccco2)c2ccccc2n1	inconclusive [inhibitor, single point]	
COc1cc(Br)c(Br)c(Br)c1N	inconclusive [activator, single point]	
Cc1ccc(Nc2ncnc3sc(C)c(C)c23)cc1C	inconclusive [inhibitor, single point]	
CCOC(=O)N1CCC(NC(=O)c2ccc(CS(=O)(=O)c3ccccc3C)o2)CC1	inconclusive [inhibitor, single point]	
NC(=O)C1CCN(C(=O)c2cc3n(n2)C(C(F)(F)F)CC(c2ccco2)N3)CC1 (centres undefined)		inactive: -1.46% [at 46.1 µM]
CCOc1cc(CNCCO)cc(Br)c1OCc1ccc(Cl)cc1	inconclusive [inhibitor, single point]	
Cn1nc([N+](=O)[O-])nc1Sc1cccc2cccnc12	inconclusive [activator, single point]	
C=CCNC(=O)/C(C#N)=C/c1cn(-c2ccccc2)nc1-c1ccc(OC)c([N+](=O)[O-])c1	inconclusive [inhibitor, full curve]	
Cc1sc2nc(SCC(=O)Nc3c(C)n(C)n(-c4ccccc4)c3=O)n(C)c(=O)c2c1C	inconclusive [inhibitor, partial curve]	
CC(NC(=O)c1ccc(CS(=O)(=O)c2cccc(C(F)(F)F)c2)o1)c1ccc2c(c1)OCCO2 (centres undefined)	inconclusive [inhibitor, single point]	
Nc1nnnn1/N=C/c1ccccc1OCc1ccc(Cl)cc1	inconclusive [inhibitor, single point]	
CCO[C@H]1OC(C(=O)Nc2ccccc2)=C[C@@H](c2csc3ccccc23)[C@@H]1CCCO	inconclusive [activator, single point]	
CCO[C@H]1OC(C(=O)N2CCN(Cc3ccc4c(c3)OCO4)CC2)=C[C@@H](c2cn(C(C)=O)c3ccccc23)[C@@H]1CCCO	inconclusive [activator, full curve, poor fit]	
NS(=O)(=O)c1ccc(NC(=S)Nc2nn(Cc3ccc(Cl)cc3Cl)cc2Cl)cc1	inconclusive [inhibitor, single point]	
O=C(Cc1nc(=O)c2ccccc2s1)Nc1ccccc1	inconclusive [inhibitor, single point]	
CCOCCCNC(=O)c1ccccc1SC		inactive: -1.2% [at 46.1 µM]
COC(Cn1c2c(c3cc(C)ccc31)CCCC2NCc1ccccc1)OC (centres undefined)	inconclusive [inhibitor, single point]	
CCOC(=O)CSc1nc2c(sc(=S)n2-c2ccccc2OC)c(=O)n1Cc1ccco1	inconclusive [inhibitor, single point]	
COc1ccc2[nH]c3c4c(ccc3c2c1)C(=O)C=CC4=O	inconclusive [activator, partial curve]	

Structure (SMILES)	Potency	activity change, negative = inhibition
Fc1ccc(CNCc2ccccc2C(F)(F)F)cc1		inactive: -6.97%
Cc1cc(C)n2nc(C(=O)N3CCCC(CNS(=O)(=O)c4cccs4)C3)cc2n1 (centres undefined)		inactive: -7%
Cc1c(C(=O)NCCSCc2ccc(Cl)cc2Cl)cccc1[N+](=O)[O-]	inconclusive [inhibitor, single point]	
O=C(Nc1ccc(OCC(F)(F)C(F)F)c(C(F)(F)F)c1)c1ccccc1O	active: 7.94 µM	
Cc1ccc(CCNC(=O)C2CCC(=O)N2C(C)C)cc1 (centres undefined)	inconclusive [inhibitor, single point]	
CSC(=N)N	inconclusive [inhibitor, single point]	
C/C(=N\NC(=S)Nc1ccc(C)c(C)c1)c1ccc(N2CCOCC2)cc1	inconclusive [inhibitor, single point]	
Cc1cccc(NC(=O)CSc2nc3ccc(N4C(=O)c5ccccc5C4=O)cc3s2)c1C	inconclusive [inhibitor, single point]	
Cc1c(C(=O)NCc2cccnc2)oc2ccc(S(=O)(=O)N3CCCCCC3)cc12	inconclusive [inhibitor, single point]	
O=C(Nc1ccc(-c2nc3cccnc3s2)cc1)C1CCCO1 (centres undefined)		inactive: -2.25%
COc1cc(C)c(C(=O)Oc2cc(C)c(C(=O)O)c(O)c2C)c(OC)c1C	inconclusive [activator, partial curve]	
CC(C)(C)c1ccc2c(c1)N(CC(=O)O)C(=O)CO2		inactive: -20% [at 46.1 µM]
CC1CCCN(C(c2cccs2)c2nnnn2Cc2ccccc2)C1 (centres undefined)	inconclusive [inhibitor, single point]	
CC1(C)CC(=O)C=C(NC2=CC3OC(c4ccccc4)OCC3OC2=O)C1 (centres undefined)	active: 2.51 µM	
Cc1nn(Cc2ccccc2Cl)c2sc(C(=O)NC(C)(C)C)cc12	inconclusive [inhibitor, single point]	
CC1=NN(c2ccccc2)C(=O)C1/C=C1\NC(=S)NC1=O (centres undefined)		inactive: -0.846%
NNC(=O)c1csc(-c2ccc(C(F)(F)F)cc2Cl)n1	inconclusive [activator, single point]	
CCOc1cc(CNCCCN2CCOCC2)cc(Br)c1OCC(=O)Nc1cccc(C(F)(F)F)c1	inconclusive [inhibitor, single point]	
CC(C)(C)c1ccc(OCC(=O)N(c2ccccn2)C2CCCCC2)cc1		inactive: -43.1%
N/C(=C\C(=O)c1cc(Cl)ccc1O)C(Cl)(Cl)Cl		inactive: -8.14% [at 7.67 µM]
CCCSc1ncc(Cl)c(C(=O)Nc2ccc(S(=O)(=O)N3CC(C)OC(C)C3)cc2)n1 (centres undefined)	inconclusive [inhibitor, single point]	
CN(C)c1cc(-c2ccc(Cl)c(Cl)c2)oc(=O)c1Cl	inconclusive [inhibitor, full curve, poor fit]	
